About 300 (9.4%) of roughly 3,200 compounds showed activity. The list shows a part of the results, in another mix than the full data.
System: A673/TR/shEF
Experiment: cell viability (LOESS-normalised, relative to median of negative controls) (log2 ratio); higher = more viable cells (less compound effect), active = hit call of the paper (over 3 MAD below the median)
Conditions: treatment time: 72 h
Method in brief: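 A673/TR/shEF Ewing sarcoma cells (1,500 per well, 384-well plates) were grown with or without doxycycline to induce EWS-FLI1 shRNA knockdown, starting 24 h before compounds. Library compounds at two or more concentrations, with DMSO controls, were added for three days. Cell viability was read by CellTiter-Glo luminescence on an Envision reader, then LOESS-corrected per plate, divided by the median of negative controls and log2-transformed. Hits were wells at least three median absolute deviations from the median of all screened wells.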

[1] = 0.025 µM, library screen: screen2, EWS-FLI1 expression: high (no doxycycline)
[2] = 0.025 µM, library screen: screen2, EWS-FLI1 expression: low (doxycycline-induced shRNA knockdown)
[3] = 0.103 µM, library screen: screen3, EWS-FLI1 expression: high (no doxycycline)
[4] = 0.103 µM, library screen: screen3, EWS-FLI1 expression: low (doxycycline-induced shRNA knockdown)
[5] = 0.25 µM, library screen: screen1, EWS-FLI1 expression: high (no doxycycline)
[6] = 0.25 µM, library screen: screen1, EWS-FLI1 expression: low (doxycycline-induced shRNA knockdown)
[7] = 0.25 µM, library screen: screen2, EWS-FLI1 expression: high (no doxycycline)
[8] = 0.25 µM, library screen: screen2, EWS-FLI1 expression: low (doxycycline-induced shRNA knockdown)
[9] = 0.308 µM, library screen: screen3, EWS-FLI1 expression: high (no doxycycline)
[10] = 0.308 µM, library screen: screen3, EWS-FLI1 expression: low (doxycycline-induced shRNA knockdown)
[11] = 0.926 µM, library screen: screen3, EWS-FLI1 expression: high (no doxycycline)
[12] = 0.926 µM, library screen: screen3, EWS-FLI1 expression: low (doxycycline-induced shRNA knockdown)
[13] = 2.5 µM, library screen: screen1, EWS-FLI1 expression: high (no doxycycline)
[14] = 2.5 µM, library screen: screen1, EWS-FLI1 expression: low (doxycycline-induced shRNA knockdown)
[15] = 2.5 µM, library screen: screen2, EWS-FLI1 expression: high (no doxycycline)
[16] = 2.5 µM, library screen: screen2, EWS-FLI1 expression: low (doxycycline-induced shRNA knockdown)
[17] = 2.8 µM, library screen: screen3, EWS-FLI1 expression: high (no doxycycline)
[18] = 2.8 µM, library screen: screen3, EWS-FLI1 expression: low (doxycycline-induced shRNA knockdown)
[19] = 8.3 µM, library screen: screen3, EWS-FLI1 expression: high (no doxycycline)
[20] = 8.3 µM, library screen: screen3, EWS-FLI1 expression: low (doxycycline-induced shRNA knockdown)
[21] = 25 µM, library screen: screen2, EWS-FLI1 expression: high (no doxycycline)
[22] = 25 µM, library screen: screen2, EWS-FLI1 expression: low (doxycycline-induced shRNA knockdown)
[23] = 25 µM, library screen: screen3, EWS-FLI1 expression: high (no doxycycline)
[24] = 25 µM, library screen: screen3, EWS-FLI1 expression: low (doxycycline-induced shRNA knockdown)

Measured: cell viability (log2)

O=P1(N(CCCl)CCCl)NCCCO1 (centres undefined)
inactive: [1] 0.105 | [2] 0.0824 | [3] 0.146 | [4] 0.0804 | [5] 0.11 | [6] 0.163 | [7] 0.137 | [8] 0.0863 | [9] 0.0638 | [10] 0.0134 | [11] 0.0846 | [12] 0.061 | [13] 0.228 | [14] 0.17 | [15] 0.122 | [16] 0.0525 | [17] 0.114 | [18] 0.0823 | [19] 0.0653 | [20] 0.1 | [21] 0.0276 | [22] 0.165 | [23] 0.071 | [24] 0.141

O=C(O)Cc1cnc[nH]1
inactive: [5] 0.0706 | [6] 0.0477 | [7] 0.192 | [8] 0.0938 | [13] 0.1 | [14] 0.0842 | [15] 0.174 | [16] 0.0822

CNC(=O)Oc1ccccc1OC(C)C
inactive: [5] 0.0795 | [6] 0.0528 | [13] 0.177 | [14] 0.0381

C[C@](N)(CCP(=O)(O)O)C(=O)O
inactive: [7] 0.14 | [8] 0.14 | [15] 0.151 | [16] 0.0963

O=C(O)[C@@H]1CCN1
inactive: [7] 0.101 | [8] 0.092 | [15] 0.0671 | [16] 0.0609

CC(N)C(O)c1ccc(O)c(O)c1 (centres undefined)
inactive: [5] 0.119 | [6] 0.0592 | [13] 0.146 | [14] 0.151

COc1ccc(CCN)cc1O
inactive: [7] 0.19 | [8] 0.105 | [15] 0.0411 | [16] 0.0823

CC(=O)O[C@@H]1CC[C@@]2(C)[C@@H](CC[C@@H]3[C@@H]2CC[C@]2(C)C(=O)CC[C@@H]32)C1
inactive: [5] 0.0923 | [6] 0.0254 | [13] 0.0362 | [14] 0.0893

COC(=O)c1cc2c(cn1)[nH]c1ccccc12
inactive: [7] 0.162 | [8] 0.0906 | [15] 0.145 | [16] 0.119

CCCN1CCO[C@@H]2c3cc(O)ccc3OC[C@H]21
inactive: [7] 0.263 | [8] 0.0533 | [15] 0.0947 | [16] 0.0737

COc1ccc2c(c1OC)C(=O)O[C@H]2[C@@H]1c2cc3c(cc2CCN1C)OCO3
inactive: [7] 0.0965 | [8] 0.0835 | [15] 0.18 | [16] 0.113

CO[C@H]1C[C@H](O[C@H]2CCC3(C=O)C4CCC5(C)C(C6=CC(=O)OC6)CCC5(O)C4CC[C@]3(O)C2)O[C@H](C)[C@H]1O (some centres undefined)
active: [5] -0.95 | [6] -1.15 | [13] -3.9 | [14] -3.2

CCCCCCCCCCCCCCCC[n+]1ccccc1
active: [13] -1.66 | [14] -2.21

CC[S+]([O-])CCSP(=O)(OC)OC (centres undefined)
inactive: [5] 0.119 | [6] 0.0126 | [13] 0.119 | [14] 0.0247

CCOP(=S)(OCC)Oc1nc(Cl)c(Cl)cc1Cl
inactive: [5] 0.0497 | [6] 0.03 | [13] 0.0752 | [14] 0.0499

COP(=S)(OC)Oc1ccc(Sc2ccc(OP(=S)(OC)OC)cc2)cc1
inactive: [5] 0.0592 | [6] -0.158 | [13] 0.114 | [14] 0.0667

CNC(=O)N(C)c1nnc(C(C)(C)C)s1
inactive: [5] 0.107 | [6] 0.084 | [13] 0.11 | [14] 0.0508

C[C@]12CCC3C(CC[C@H]4C[C@H](O)CC[C@]34C)C1CC[C@@H]2C(=O)CO (some centres undefined)
inactive: [7] 0.139 | [8] 0.0931 | [15] 0.0348 | [16] 0.0492

CCC(=O)O[C@H]1CC[C@H]2[C@@H]3CCC4=CC(=O)CC[C@]4(C)[C@H]3CC[C@]12C
inactive: [3] 0.0398 | [4] 0.0836 | [5] 0.118 | [6] -0.0311 | [9] 0.0165 | [10] 0.0285 | [11] 0.0471 | [12] 0.0358 | [13] 0.154 | [14] 0.132 | [17] -0.0169 | [18] 0.0447 | [19] 0.0137 | [20] 0.0661 | [23] -0.0678 | [24] 0.113

COc1ccc(OC)c(C(O)C(C)N)c1 (centres undefined)
inactive: [1] 0.185 | [2] 0.0992 | [5] 0.0166 | [6] -0.00492 | [7] 0.162 | [8] 0.105 | [13] 0.134 | [14] 0.0886 | [15] 0.162 | [16] 0.0903 | [21] 0.141 | [22] 0.0948

C[C@H]1CC[C@]2(NC1)O[C@H]1C[C@H]3[C@@H]4CC[C@H]5C[C@@H](O[C@@H]6O[C@H](CO)[C@H](O[C@@H]7O[C@H](CO)[C@@H](O)[C@H](O[C@@H]8OC[C@@H](O)[C@H](O)[C@H]8O)[C@H]7O[C@@H]7O[C@H](CO)[C@@H](O)[C@H](O)[C@H]7O)[C@H](O)[C@H]6O)CC[C@]5(C)[C@H]4CC[C@]3(C)[C@H]1[C@@H]2C
active: [13] -1.17 | [14] -1.98

Reference: the supplement of paper PMC6089552
